Source: paper PMC12136788
The other results are listed elsewhere or left out.

T1: UNK ZnF1-3 (human, UniProt Q9C0B0 31-174)
T1 sequence: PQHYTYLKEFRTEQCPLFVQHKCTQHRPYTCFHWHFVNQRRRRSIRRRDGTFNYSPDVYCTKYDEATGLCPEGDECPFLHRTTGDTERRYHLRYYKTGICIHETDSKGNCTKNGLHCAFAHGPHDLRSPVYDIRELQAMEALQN

B1: chr1:220379288:220379289:-_ENSG00000118873_ENST00000358951|hu_mus|motif|central (ssRNA)
RNA: GGGAGUUCUACAGUCCGACGAUCUGAUGCUGCAGCUUUUGCUACUUGGUUUCGACAGGCUCGAAGAGACUGAAAGAGACGGAAUCCAUCAAUCGUCACAAUGGCGGCUGGAUAUAAGAUGCUCAGUUCUUCAUUCUGCUCAGUCAACAGAGGAUUGAGCAUCA
B2: chr8:104447970:104447971:+_ENSG00000164934_ENST00000297579|hu_hu|hu_hu_hu_mus_False|1_18 (ssRNA)
RNA: GGGAGUUCUACAGUCCGACGAUCAUACACUUCCCUGCUUCGGCUCUUGUCCACAGGAAAGAUUCUAAUAGACUUAUCAAAGCUGGCAGACACAAAUUCCUUCCCAGUGGGAGAGUAAUCCACAUCAAGUACUGCAGAUACAUGCAACAGAGGAUUGAGCAUCA
B3: chr16:33496766:33496767:+_ENSMUSG00000022811_ENSMUST00000165418|mus_mus|FALSE|FALSE (ssRNA)
RNA: GGGAGUUCUACAGUCCGACGAUCUGAUCCAACAUUCUCUGACUGGGUGACUUCAGGUACAUCGGAAGAAUUGAUUGAUAUGCUAGAAGUCACUUCAGUAUCUGCAACGCUGAAGGAAAUCUCAUGCUGUCCAUUAGGUUUGUGCAACAGAGGAUUGAGCAUCA
B4: 155537933_155538053_2874_CDS_ENSG00000184863_ENST00000401878|human|control|control (ssRNA)
RNA: GGGAGUUCUACAGUCCGACGAUCAUGUUUCAGUGCUUUCAUCUGUUGUCCUUGAUACUGCAUGUUGGCACUGGAUGGUACAAAAUUGGAUGUUUUGGGCUGAACGUUUGAAAUACUGACAUCCUGGUUUUUAACAAGAAGUCUCAACAGAGGAUUGAGCAUCA
B5: chr12:39763582:39763583:-_ENSG00000139116_ENST00000544797|hu_mus|hu_hu_hu_mus_False|28_88 (ssRNA)
RNA: GGGAGUUCUACAGUCCGACGAUCCUCUAGGAACUGGGCAUUCACUUUAAAAUCUGGAGGGGGCAGCCCGUUUUUAAUCGCUGAGGUCUUUUUCUCAUCAAUACUCUUAAAAAGGUGUCUAACAGCACGAGAGAUGAUGCCCUGCAACAGAGGAUUGAGCAUCA
B6: chr16:45382771:45382772:-_ENSMUSG00000022661_ENSMUST00000163230|mus_mus|mus_mus_mus_hu_True|68_68 (ssRNA)
RNA: GGGAGUUCUACAGUCCGACGAUCCUGGGUCAUGUUAUAAGACAAAUGGACAGGGAGGGCAUGCUUCUGUAAAGAUGUGAGCUAUUGUCUAAGACUAACAAUAUUUAUCUAGCUAUAAAAAUAAGUUAAAUGAAUAAGUUAAGACAACAGAGGAUUGAGCAUCA
B7: chr7:134094464:134094465:+_ENSMUSG00000030683_ENSMUST00000106335|mus_mus|motif|central (ssRNA)
RNA: GGGAGUUCUACAGUCCGACGAUCCUCGCUGUCACUUUCCCUCUGCGUCCUUUUAUCUUUUCCUUUAAUUUUGCUUUCCUGCGGAGGGUCGGCAAAGGAAGGCAAAUUUUCUUCCUUUGGGAUGGAGAAGCAGAAUUGGCCUAGCAACAGAGGAUUGAGCAUCA
B8: chrX:71549762:71549763:+_ENSMUSG00000019087_ENSMUST00000019231|mus_mus|mus_mus_mus_hu_False|28_78 (ssRNA)
RNA: GGGAGUUCUACAGUCCGACGAUCAAACCCGUGUACUUCUUAUUGUUAGCACAACAUUCCCCCCCAACGAUAACGACAGCCAAGCAGGACAGACAGUUAAGUAGUACUUCCACACCUCCAAACUCAGGGAGCCCUAUAACCUUACAACAGAGGAUUGAGCAUCA
B9: chr8:117878989:117878990:-_ENSG00000164754_ENST00000297338|hu_hu|hu_hu_hu_mus_True|98_108 (ssRNA)
RNA: GGGAGUUCUACAGUCCGACGAUCCCAGAGGCCCUCUUUUACUGAGAACAAAAUGUGCGUAGAACAUUUUUCUUAUUUGCUAUGAAAUAAGAAGAAACCUGGAUCUCGGCGGGGAGCCGGGAGGGGUGGGUGGCCCGGGGAGGGCAACAGAGGAUUGAGCAUCA
B10: chr5:37680062:37680063:+_ENSMUSG00000029121_ENSMUST00000031004|mus_hu|mus_mus_mus_hu_False|78_88 (ssRNA)
RNA: GGGAGUUCUACAGUCCGACGAUCUUUGGGUGUAGCUGGUACCUCGUACACAGGCCCAUCGUACAUGCCCCUGGAAACCCCUUGCAAUCCAAAAACCUUAUUCCUGAUUUUGACGCGCUGGUACAGGUGCUCCGGGAACGCCUUCAACAGAGGAUUGAGCAUCA
B11: chr2:178096590:178096591:-_ENSG00000116044_ENST00000397062|hu_hu|motif|central (ssRNA)
RNA: GGGAGUUCUACAGUCCGACGAUCGAGGAUGCUGCUGAAGGAAUCCUCAAAAGCAUUAAGAAAAUGUGGACUACAGUUACCGGCUUCUUUUUCCAUUGAGGGUAUAGAUGAGUAAAAAUGAUAAUUGUCAACUUCUGUCAGUUUCAACAGAGGAUUGAGCAUCA
B12: chr1:78428520:78428521:-_ENSG00000162613_ENST00000370768|hu_mus|FALSE|FALSE (ssRNA)
RNA: GGGAGUUCUACAGUCCGACGAUCCCCUAAAGGAUUUACUGGGCCCCCAAUCUUCUCUUCUAUGAGUUGUCGAGCAUAGUCUAUUUGCUGUGGAGUGCCCCGAAUUGUAAAUAACUUCAUAUUGGGAUCUGCAUUAGGUGGAGGCAACAGAGGAUUGAGCAUCA
B13: chr17:58740566:58740567:+_ENSG00000170836_ENST00000305921|hu_hu|FALSE|FALSE (ssRNA)
RNA: GGGAGUUCUACAGUCCGACGAUCUUUUUGGUCCAUGACAGUGUUUGUUGAAUUAGUAGGCACAAGGCCAAUUGGAAGGCUAUUAUUCAAAGAAUCAUGUAUCCUUAAAGUCAGGGCUUUAGCGCAAUUUUCUUCAAGUGGUUCCAACAGAGGAUUGAGCAUCA
B14: 123193944_123195740_1386_CDS_ENSMUSG00000029471_ENSMUST00000111668|mouse|control|control (ssRNA)
RNA: GGGAGUUCUACAGUCCGACGAUCCAAGUCUUCGGCUAUAUCGGGCUGGUCGGGAAACUCCAGGGCCUGACUCUUGAUCUUACUGUGCAAACACAUGAUUCGUUCAUCCAUGAAAGGGCACUGGCCAAAGACAAAGCAGUACAGCAACAGAGGAUUGAGCAUCA
B15: chr1:46159212:46159213:+_ENSG00000159596_ENST00000372025|hu_mus|hu_hu_hu_mus_True|1_18 (ssRNA)
RNA: GGGAGUUCUACAGUCCGACGAUCUCUGAUCCCUCCCAAGAAAGCUAGGAAACCGGCUCCAUAAGCCAUCUGAGUGAAAGCUAGGACGGGGAUAUAAGACUUUGUUAUUACCAUGAGCAGUGGUGGAGCAGUAAAGGGGAUUAGCAACAGAGGAUUGAGCAUCA
B16: chr1:38108737:38108738:+_ENSMUSG00000026083_ENSMUST00000027252|mus_hu|FALSE|FALSE (ssRNA)
RNA: GGGAGUUCUACAGUCCGACGAUCAAGGGCAAACUUUAAAACAGCAGCCAAGUAGAGAAGGGUUGGGGAAGGGAGAGGUGAGUGAACAGGCACAUUGGAACUGUGGGGACAUGUAACUGACCACUGUCAAACCAGUGUAAGUUUCAACAGAGGAUUGAGCAUCA
B17: 133308728_133308848_738_3pUTR_ENSMUSG00000007880_ENSMUST00000145664|mouse|control|control (ssRNA)
RNA: GGGAGUUCUACAGUCCGACGAUCGGACGAAGACGACGAGGAGGCAGAGGCGCUGGAGGAGGGAGGCGGCUUGGAGCCGGCGGCCGCCGCCGCGCCGGAGCCCGGAGUGCCACCUCUCGGGGAGCUCAGCGCGUAGGCCUGGGGCAACAGAGGAUUGAGCAUCA
B18: chr3:47719781:47719782:-_ENSG00000173473_ENST00000254480|hu_hu|motif|central (ssRNA)
RNA: GGGAGUUCUACAGUCCGACGAUCAUGGACCCUCAUCACAGCACACACAUCUCCAGUCAAGUUCCUCCGACAAGCAGUGCGGGUUAAAUACUCUUGGGGGUUUAGACGAUACGUGUCAAUCAUAAAAUUUCGAUAUGCCAAGUACAACAGAGGAUUGAGCAUCA
B19: chr7:135612270:135612271:-_ENSG00000105887_ENST00000393085|hu_mus|hu_hu_hu_mus_False|38_78 (ssRNA)
RNA: GGGAGUUCUACAGUCCGACGAUCGUUUUUUUCUGAGAUGUUAAAUAGUACUUCAGUAACAAAACUUACUUAACCUUUUAUUAAUGCGUGUUGUACCAGAAAGCAAAAUUUUAGCUUCAUUUAUUCAAAAAUAUUAACAUUAAGCAACAGAGGAUUGAGCAUCA
B20: chr3:167401952:167401953:-_ENSG00000114209_ENST00000497056|hu_hu|FALSE|FALSE (ssRNA)
RNA: GGGAGUUCUACAGUCCGACGAUCAAAAGAAUGAUAAUAGCAAAAGUGAUGCAAAAUCUUCAGUGUGAGAUUAUGAUUAAGCUACAUUUUACAAAAAUAUGGUGUAAGAUGGCAAUAAUCCCAUUCAACAUCCUGGAUUAGAUCCAACAGAGGAUUGAGCAUCA
B21: 106934640_106934760_4635_CDS_ENSMUSG00000040481_ENSMUST00000057892|mouse|control|control (ssRNA)
RNA: GGGAGUUCUACAGUCCGACGAUCCUCUCCAGUUCUAACAGGAGACGGGAUAACUCUCUUAACCUCUGGACUUUCAGUUUCCAUAUCUUCUACCUGACUAAGUGAGUUCCGAUCUGGACAAGGGGCUCGGGGUGUGAUUACCUGCAACAGAGGAUUGAGCAUCA
B22: chr12:111951244:111951245:-_ENSG00000204842_ENST00000535949|hu_hu|FALSE|FALSE (ssRNA)
RNA: GGGAGUUCUACAGUCCGACGAUCUCUUGGAACCCCACUGACCACUGAUGACCACGUUCCCCCCGAGGGACUGGUCCUUGCUACUGGAGGAGUAGCUGCUUCACUGGGUGGGUUGUGGGAUACAAAUUCUAGGCCACUGGAUAUCAACAGAGGAUUGAGCAUCA

Each binder was assayed against T1, UNK ZnF1-3 (assay: nsRBNS (natural sequence RNA bind-n-seq); RBNS binding buffer (assumed for nsRBNS): 25 mM Tris pH 7.5, 150 mM KCl, 3 mM MgCl2, 0.01% Triton X-100, 500 ug/ml BSA, 20 U/ml SUPERase-In, 4 C; UNK is unkempt and MSI1 is Musashi-1; names of the RNAs are library labels; protein concentration not given here; high values mean tight binding).
In the case of B1, the binding signal is reported as 0.89 enrichment R. In the case of B2, the binding signal is reported as 0.885 enrichment R. Work on B3 yielded a binding signal of 0.618 enrichment R. B4 showed a binding signal of 0.538 enrichment R. Binder B5 has a binding signal of 1.96 enrichment R. B6 gave a binding signal of 1.9 enrichment R. In the case of B7, the binding signal is reported as 0.832 enrichment R. B8 showed a binding signal of 1.73 enrichment R. B9 showed a binding signal of 1.96 enrichment R. Work on B10 yielded a binding signal of 0.78 enrichment R. B11 was tested, and the binding signal was 1.47 enrichment R. With B12 the binding signal was 1.65 enrichment R. B13 showed a binding signal of 1.09 enrichment R. With B14 the binding signal was 0.895 enrichment R. For B15, the binding signal was 2.41 enrichment R. B16 gave a binding signal of 1.77 enrichment R. B17 showed a binding signal of 0.963 enrichment R. B18 was tested, and the binding signal was 1.9 enrichment R. With B19 the binding signal was 1.04 enrichment R. With B20 the binding signal was 1.02 enrichment R. B21 gave a binding signal of 0.74 enrichment R. B22 gave a binding signal of 0.642 enrichment R.
